# In publication PMC4336329 (PLoS ONE, 2015):
# Hit rate of the full screen: of about 310,000 compounds, about 14,000 (4.5%) showed an effect of 50% or more. Effects have a minus sign here. The list shows a part of the results.
# Target: human ether-à-go-go-related gene (hERG) potassium channel (human, UniProt Q12809)
# Experiment: primary screen, population patch clamp on CHO cells stably expressing hERG
# 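Also: peak tail current of the secondary pulse compared with the same well before compound.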
# human ether-à-go-go-related gene (hERG) potassium channel, sequence (Q12809 whole entry, looked up): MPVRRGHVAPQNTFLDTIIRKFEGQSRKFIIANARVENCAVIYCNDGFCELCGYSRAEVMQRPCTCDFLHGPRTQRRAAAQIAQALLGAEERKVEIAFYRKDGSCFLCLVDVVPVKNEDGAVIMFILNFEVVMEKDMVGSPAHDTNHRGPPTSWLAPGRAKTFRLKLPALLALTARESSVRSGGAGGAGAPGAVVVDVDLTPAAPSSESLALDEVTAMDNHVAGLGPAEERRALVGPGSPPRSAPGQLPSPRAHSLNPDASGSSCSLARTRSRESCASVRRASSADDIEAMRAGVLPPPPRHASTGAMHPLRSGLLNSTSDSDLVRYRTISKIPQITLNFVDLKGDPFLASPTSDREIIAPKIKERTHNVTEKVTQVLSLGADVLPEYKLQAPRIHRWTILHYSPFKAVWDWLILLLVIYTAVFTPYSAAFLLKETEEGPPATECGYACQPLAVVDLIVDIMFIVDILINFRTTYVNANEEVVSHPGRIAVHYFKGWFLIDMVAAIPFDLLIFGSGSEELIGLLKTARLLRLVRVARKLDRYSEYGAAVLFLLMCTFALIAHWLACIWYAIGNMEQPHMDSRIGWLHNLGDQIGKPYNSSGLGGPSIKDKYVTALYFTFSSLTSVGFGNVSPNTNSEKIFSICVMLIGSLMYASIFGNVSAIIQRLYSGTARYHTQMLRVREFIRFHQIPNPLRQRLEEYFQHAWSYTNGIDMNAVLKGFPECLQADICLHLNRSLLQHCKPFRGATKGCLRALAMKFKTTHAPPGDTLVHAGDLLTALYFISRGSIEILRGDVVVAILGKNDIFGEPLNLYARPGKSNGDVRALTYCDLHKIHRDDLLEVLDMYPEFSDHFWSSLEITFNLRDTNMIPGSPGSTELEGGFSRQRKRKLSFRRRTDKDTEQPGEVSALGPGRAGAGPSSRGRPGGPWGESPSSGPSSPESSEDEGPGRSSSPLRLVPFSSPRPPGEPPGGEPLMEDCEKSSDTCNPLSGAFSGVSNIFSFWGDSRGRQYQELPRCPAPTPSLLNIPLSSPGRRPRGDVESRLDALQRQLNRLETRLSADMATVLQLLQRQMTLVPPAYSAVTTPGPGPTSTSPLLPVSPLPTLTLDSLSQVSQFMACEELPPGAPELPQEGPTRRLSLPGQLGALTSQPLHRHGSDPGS
row,Compound,"hERG current change (%, negative = inhibition) at 10uM"
1,CCCn1c(CCNC(=O)c2cccs2)nc2ccccc21,-36.1%
2,O=C(NCc1cccs1)c1cccn2c(=O)c3sccc3nc12,-7.79%
3,Cc1cc(C)n2nc(C(=O)NCc3ccccc3)nc2n1,-1.29%
4,COc1cc(C)ccc1OCc1cc(C(=O)NCCN2CCCC(O)C2)no1 (stereo not drawn),-6.69%
5,O=C(Cc1coc2cc3c(cc12)CCC3)OCc1cc(=O)n2c(n1)sc1ccccc12,4.53%
6,CCCCN(Cc1nc2ccccc2c(=O)[nH]1)C(=O)CN1C(=O)NC2(CCCCC2)C1=O,-41.9%
7,CC1=C(C(=O)Nc2ccccc2C)C2(CCCCC2)C(C(N)=O)C(=S)N1 (stereo not drawn),-6.7%
8,Cc1[nH]nc2c1C(c1ccc(Cl)cc1)C(C#N)=C(N)O2 (stereo not drawn),5.06%
9,CCOC(=O)c1c(C)[nH]c(C(=O)OC(C)C(=O)Nc2ccccc2OC)c1C (stereo not drawn),2.57%
10,N#Cc1c(NC(=O)c2cc(C3CC3)on2)sc2c1CCC2,13.8%
11,CCC1CCCCN1CCCNC(=O)CN1C(=O)c2cccnc2Oc2ccc(Cl)cc21 (stereo not drawn),-3.74%
12,CC(=O)N1CCc2ccc(S(=O)(=O)Nc3ccccc3Cl)cc21,-3.03%
13,Cn1c(NC(=O)c2cccc(Cn3cc(Cl)cn3)c2)nc2ccccc21,6.57%
14,Cc1cc(C)nc(N/N=C/C2=C(O)CC(c3ccc(F)cc3)CC2=O)n1 (stereo not drawn),-13.7%
15,CC(CC(=O)O)CC(=O)Nc1ccc(Br)cc1 (stereo not drawn),16.9%
16,C=CCOc1ccccc1CNCCNC(=O)c1nonc1N.Cl,-22.8%
17,OC1(CN2CCOCC2)C2CN3CCN(C2)CC1(c1ccccc1)C3 (stereo not drawn),-0.418%
18,CCCOc1ccccc1/C=N/Nc1ccnc(=O)[nH]1,17%
19,COc1ccccc1/C=C/C(=O)NCCc1ccccn1,21.6%
20,CC(=O)NC1(C(F)(F)F)C(=O)Nc2c1c(=O)[nH]c(=O)n2CC(C)C (stereo not drawn),19.8%
21,Cc1cccn2c(=O)c3cc(C(=O)N4CCC5(CC4)OCCO5)n(C)c3nc12,-16.7%
22,Cc1ccc(C(=O)O)cc1-n1c(=O)n(Cc2ccccc2)c(=O)c2[nH]cnc21,15%
23,O=C(CNC(=O)c1ccc(Cl)cc1)NCC(F)(F)F,4.13%

row,Compound,"hERG current change (%, negative = inhibition) at 10uM"
1,FC(F)(F)c1nnc2sc(-c3cccs3)nn12,-7.24%
2,O=C(c1ccco1)N1CCN(Cc2nc3ccc([N+](=O)[O-])cc3c(=O)n2-c2ccccc2F)CC1,-68.3%
3,CCNC(=O)NC(=O)CSc1nc2ccccc2n1CC(C)C,-4.02%
4,O=C(NCc1ccc2c(c1)OCO2)C1CCC(=O)N1C1CCCCC1 (stereo not drawn),-9.26%
5,CCOc1ccc2[nH]c(=O)c(=O)[nH]c2c1,-17.2%
6,CCCn1nc(Oc2nc(SC)nc(N(C)C)n2)ccc1=O,-17.7%
7,CN(C)S(=O)(=O)c1cccc(C(=O)Nc2cc3c(cc2C(=O)O)OCCCO3)c1,23.4%
8,Cc1ccc(C(=O)COC(=O)c2c(C)cc(=O)oc2C)cc1[N+](=O)[O-],-27.3%
9,C=CCNC(=O)c1onc(CSc2cccc(OC)c2)c1C(=O)NCC=C,6.65%
10,O=C(O)CCN1C(=O)C2C3CC(C2C1=O)C1C(c2ccccc2)c2sc(=O)[nH]c2SC31 (stereo not drawn),13%
11,CC(=O)Nc1ccccc1NS(=O)(=O)c1ccc(Cl)cc1,-2.08%
12,COc1cc(NC(=O)CSc2nccc(C)n2)c(C)cc1[N+](=O)[O-],-8.03%
13,COc1cccc(-c2ccnc3[nH]n(-c4ccccc4)c(=O)c23)c1,18.5%
14,Cc1ccc(CNC(=O)c2nnc(CS(=O)(=O)c3ccccc3)o2)cc1,-16.4%
15,CN(C)CCCn1c(-c2ccccc2)nc(=S)c2c1CCCC2,12.2%
16,O=C(NCCOC(=O)c1ccc(F)cc1)c1ccc(F)cc1,-8.02%
17,COc1cc(C(=O)NNC(=O)CSc2nnc3ccccn23)cc(OC)c1OC,15.4%
18,O=C(NCc1ccccc1)C12CN(Cc3ccccc3)CC1C(c1cccc([N+](=O)[O-])c1)=NO2 (stereo not drawn),-14.6%
19,COc1cccc(CNC2CCCc3ccccc32)c1OC (stereo not drawn),3.4%
20,COc1ccc(C(=O)Nc2ccc3c(c2)OCCO3)cc1S(=O)(=O)N1CCOCC1,6.21%
21,Brc1cnc(N2CCCC2)nc1N1CCOCC1,-15.9%
22,CCOC(=O)c1ccc(N2Cc3ccccc3C2=NC(=O)c2cccc([N+](=O)[O-])c2)cc1,10.7%
23,CCC(C)CCN1C(Nc2ccccc2)=NC[C@@H]1Cc1ccccc1 (stereo partly drawn),-59.6%

row,Compound,"hERG current change (%, negative = inhibition) at 10uM"
1,CCCN(CC(=O)Nc1ccccc1C)C(=O)C1CCN(S(=O)(=O)c2cccc(C(F)(F)F)c2)CC1,-14.9%
2,CCOC(=O)N/N=C/c1cn(CCCOc2ccccc2)c2ccccc12,21.4%
3,O=C(CC1SC(=O)N(c2ccccc2)C1=O)Nc1ccc(Br)cc1 (stereo not drawn),16.1%
4,CCOC(=O)C1CCCN(C(=O)C(=O)c2cn(CC(=O)N3CCOCC3)c3ccccc23)C1 (stereo not drawn),-2.74%
5,COC(=O)c1ccc(Cn2nc(C)cc2C)cc1,17.6%
6,CCOC(=O)c1c(NC(C)=O)sc2c(OC(C)=O)cccc12,8.8%
7,Cc1ccc(OCC(=O)N(Cc2ccco2)C2CCS(=O)(=O)C2)cc1C (stereo not drawn),-38.8%
8,CC1CCC(=O)N(CCSc2ccccc2)CC1 (stereo not drawn),-9.05%
9,Cc1ccccc1NC(=O)Cn1cc(C(=O)C2CC2)c2ccccc21,10.2%
10,COc1ccc(S(=O)(=O)N(C)CC(=O)Nc2ccccc2SC)cc1Cl,7.69%
11,CCOC(=O)Cc1csc(NC(=O)c2ccc([N+](=O)[O-])cc2[N+](=O)[O-])n1,-0.405%
12,COc1cccc(C2=CC(=O)CC(c3ccco3)C2)c1 (stereo not drawn),-16.1%
13,COc1ccc2c(c1)O/C(=C\c1ccccc1C)C2=O,2.02%
14,Cc1ccc(O)c(N=Nc2ccc(S(=O)(=O)N3CCCC3)cc2)c1,32.7%
15,CCOC(=O)C1C(=O)NC(N2CCN(Cc3ccccc3)CC2)=NC1c1ccccc1 (stereo not drawn),-13.2%
16,CCOc1ccccc1/C=N/n1nnnc1N,15%
17,CCN(CC(=O)Nc1ccccc1C(F)(F)F)C(=O)c1cccc(N2C(=O)CCC2=O)c1,-3.81%
18,Cc1cccc(NC(=O)CSCC(=O)N2CCN(c3cccc(C(F)(F)F)c3)CC2)c1,-21.8%
19,COc1ccccc1N1CCN(C(=O)C(=O)c2c(C)n(C)c3ccccc23)CC1,-8.62%
20,COc1cccc2c(=O)c3cccc(N)c3[nH]c12,8.24%
21,CCOC(=O)C(NC(=O)Nc1cccc(C)n1)(OCC(F)(F)F)C(F)(F)F (stereo not drawn),5.06%
22,Cc1cc(C)n(C(=O)c2ccc(Cn3nc(C)c(Br)c3C)o2)n1,-1.03%
23,COc1cc2cnc(-c3ccccc3)c(-c3cccc(C(F)(F)F)c3)c2cc1OC,19%

row,Compound,"hERG current change (%, negative = inhibition) at 10uM"
1,O=C(Cc1ccc(S(=O)(=O)N2CCOCC2)s1)NC1CCCCC1,-25.4%
2,Cc1ccc(/C=C/C(=O)N2CCCC(C(N)=O)C2)o1 (stereo not drawn),-8.59%
3,Brc1ccc2ncnc(NCc3ccco3)c2c1,-39.5%
4,CC(C)NC(=S)N1CCN(c2ncccn2)CC1,-0.598%
5,COc1ccc2c(c1)c(C(O)CN1CCC(Cc3ccccc3)CC1)c(C)n2C (stereo not drawn),-71%
6,COc1ccc(NC(=O)N(Cc2cc3cc(C)ccc3[nH]c2=O)CC2CCCO2)cc1 (stereo not drawn),-25.2%
7,CC(=O)c1ccc(Sc2ccccc2N)c([N+](=O)[O-])c1,-14.7%
8,COc1ccc(CN2[C@@H](CC(C)=O)c3cc(C(F)(F)F)ccc3S2(=O)=O)cc1,-33.7%
9,COc1ccc(-n2c(=O)c3ccccc3n(CC(=O)NCC3CCCO3)c2=O)cc1 (stereo not drawn),13.4%
10,CCN(CC)c1ccc(C(NC(C)=O)NC(C)=O)cc1,2.87%
11,CCOc1ccccc1NC(=O)CSc1nc2c(c(=O)n1C)SC(C)C2 (stereo not drawn),-38.2%
12,Cc1ccc(CCc2nnc(SCC(=O)Nc3cc(Cl)ccc3Cl)n2-c2ccccc2)o1,-2.79%
13,O=C(NC(Cc1ccccc1)c1ccc2c(c1)OCCCO2)c1ccccc1 (stereo not drawn),19.1%
14,CN1CCCN(S(=O)(=O)c2cccc(C#N)c2)CC1.Cl,6.61%
15,O=C(OCc1cc(Cl)ccc1OC(F)F)c1cccnc1,-7.25%
16,CCOC(=O)c1cc(C#N)c(SC)nc1C,13.1%
17,CN(C)c1ccc(C(=O)OCc2ccc(Br)cc2)cc1,12.5%
18,COc1ccc(CC(=O)Nc2cc(C)on2)cc1OC,2.2%
19,COc1ccc(CCNc2ncnc3sccc23)cc1OC,12.9%
20,COc1ccc(NC2=Nc3ccccc3CC2)cc1,-28.4%
21,CC(C)(C)S(=O)(=O)/C(C#N)=N/Nc1ccc(S(N)(=O)=O)cc1,15%
